Consider 124 compounds from publication PMC9574860, “Chemical Toolkit for PARK7: Potent, Selective, and High-Throughput” (Journal of Medicinal Chemistry, 2022).

Out of some 7,900 compounds screened, about 400 (5.1%) showed an effect of 50% or more. The list shows a part of the results.

Chain of Parkinson's disease protein 7 (PARK7/DJ1) (Q99497 whole entry, looked up, the tested form may be a part): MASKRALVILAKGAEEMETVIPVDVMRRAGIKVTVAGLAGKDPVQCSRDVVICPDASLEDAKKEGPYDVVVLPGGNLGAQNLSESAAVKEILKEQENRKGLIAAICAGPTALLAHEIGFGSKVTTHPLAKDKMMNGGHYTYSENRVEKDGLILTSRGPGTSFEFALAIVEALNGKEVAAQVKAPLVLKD

In this assay the target is Parkinson's disease protein 7 (PARK7/DJ1) (human, UniProt Q99497). The assay is described as follows: primary screen, percent inhibition; read as competition with a fluorescent probe by fluorescence polarization; higher = more effect of the substance. As to conditions: 100 µM. The gist of the method:
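Covalent fragments at 100 μM final were incubated 2 h with 0.2 μM PARK7, then 20 nM probe JYQ-107 added for a further 2 h. Fluorescence polarization read at 480/520 nm; relative FP loss versus reference controls gave remaining enzyme activity.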
Take `Cc1cn(S(=O)(=O)c2ccc(C)c(C)c2)cn1`: the Inhibition % is 8.11%.

As for `C=CC(=O)NC1(c2ccc(OC)cc2)CC1`, the Inhibition % is 7.62%.

In the case of `C=CC(=O)N1CCC(NC(=O)c2oc(C)cc2C)CC1`, the Inhibition % was 3.91%.

Take `C=CC(=O)N1CCOC(CN(C)c2nccn(C)c2=O)C1` (stereo not shown): the Inhibition % amounted to 16.9%.

`C=CC(=O)NCc1noc2ccccc12`: the Inhibition % is 11.5%.

Regarding `N#Cc1ccc(C(=O)O)cn1`, the Inhibition % came out at 5.73%.

`COC1(CNC(=O)c2cccnc2S)CCOCC1`: the Inhibition % worked out at 9.16%.

Take `CC(C)CCNC(=O)C1CCN(C(=O)CCl)CC1`: the Inhibition % is recorded as 0.13%.

For the compound `C=CC(=O)NC(c1nccn1C)c1nccn1C`, the Inhibition % is given as 22.4%.

Turning to `CN(CC(=O)Nc1ncc(S(=O)(=O)F)s1)S(C)(=O)=O`, the Inhibition % is listed as 9.17%.

On to `Cc1nn(Cc2ccccc2)c(C)c1CNC(=O)CCl`, for which the Inhibition % came out at 15.6%.

As to `C=CC(=O)N1CCSCC1S(C)(=O)=O` (stereo not shown), the Inhibition % turned out to be 0.579%.

As for `C=CC(=O)N(C)CC1CC1(C)C` (stereo not shown), the Inhibition % amounted to 15.4%.

Consider `Cc1csc(C(C#N)=Cc2ccc(C)o2)n1`, for which the Inhibition % worked out at 30.7%.

Regarding `Cc1cc2cc(B3OC(C)(C)C(C)(C)O3)ccc2n1C(=O)OC(C)(C)C`, the Inhibition % came out at 28.1%.

`O=C1CC(c2cccc(Cl)c2)=NO1`: the Inhibition % came out at 27.7%.

Turning to `CCNC(=O)C1CN(c2cccc(C#N)n2)C1`, the Inhibition % is given as 7.59%.

With `C=CC(=O)N1CCn2cccc2C1C` (stereo not shown), the Inhibition % was determined as 3.82%.

For `NC(=O)Nc1ccc(S(=O)(=O)F)cc1`, the Inhibition % amounted to 18.9%.

Turning to `COc1ccc(C(C)(C)C)cc1S(=O)(=O)n1ccnc1C`, the Inhibition % amounted to 7.71%.

With `C=CCOc1ccc(Cl)nc1C#N`, the Inhibition % worked out at 3.59%.

Turning to `C=CC(=O)N1CCNC(=O)C1c1cccs1` (stereo not shown), the Inhibition % turned out to be 4.18%.

In the case of `O=C(CCl)Nc1cc(F)cc(F)c1`, the Inhibition % came out at 14.6%.

For `CCOc1ccc(C(C)C)cc1S(=O)(=O)n1cccn1`, the Inhibition % came out at 2.71%.

Take `O=C(CCl)NCC(=O)c1ccccc1`: the Inhibition % worked out at 4.23%.

As to `C=CC(=O)N1CCN(c2ncc(CC)s2)CC1`, the Inhibition % is given as 10.2%.

Consider `CC(=O)N1CCN(Cc2cccc(B3OC(C)(C)C(C)(C)O3)c2)CC1`, for which the Inhibition % was 7.71%.

In the case of `ClCCc1cnoc1`, the Inhibition % is on record as 3.99%.

Take `COc1ccc(C=C(C#N)C(=O)NCc2ccco2)cc1`: the Inhibition % is on record as 8.17%.

With `C=CC(=O)N1CCOC(c2ccnc(N(C)C)n2)C1` (stereo not shown), the Inhibition % is on record as 4.36%.

Consider `CN(CCc1ccccc1)c1nccnc1C#N`, for which the Inhibition % is recorded as 3.72%.

On to `CC1CCCCC1NC(=O)NC(=O)CCl` (stereo not shown), for which the Inhibition % was 29.4%.

Consider `CC(C)c1ccc(C2CO2)cc1` (stereo not shown), for which the Inhibition % is 4.9%.

Regarding `CN1CCOC(COc2ccc(B3OC(C)(C)C(C)(C)O3)cc2)C1` (stereo not shown), the Inhibition % stood at 5.14%.

On to `C=CC(=O)NC(C)c1nnc(C)s1` (stereo not shown), for which the Inhibition % was 4.69%.

Take `O=C(O)C1CCCCN1C(=O)C=Cc1cncc(F)c1` (stereo not shown): the Inhibition % amounted to 6.97%.

Consider `CC(C)c1n[nH]c(=O)o1`, for which the Inhibition % is 3.79%.

For the compound `N#CC(=Cc1ccc(-c2ccc(F)cc2)o1)C(N)=O`, the Inhibition % was found to be 31.4%.

Take `O=C1NC(c2ccccc2)C12CCC2` (stereo not shown): the Inhibition % is 31.9%.

As for `Cc1ccc(C(NC(=O)CCl)c2cccs2)cc1` (stereo not shown), the Inhibition % was -0.439%.

Consider `CC1(C)OB(c2ccncc2)OC1(C)C`, for which the Inhibition % is recorded as 4.41%.

As to `CN(C(=O)CCl)c1ccccc1`, the Inhibition % came out at 79.7%.

For `Cc1ccn(S(=O)(=O)c2ccc(F)cc2)n1`, the Inhibition % came to 10.8%.

`COC(=O)c1ccc(C)c(NC(=O)CCl)c1`: the Inhibition % amounted to 3.25%.

Consider `CC1(C)OB(c2ccc3ccoc3c2F)OC1(C)C`, for which the Inhibition % turned out to be 19.2%.

For the compound `C=CC(=O)NC1CCC(c2ccc(F)cc2)C1` (stereo not shown), the Inhibition % is reported as 2.34%.

Consider `C=CC(=O)NCCn1ccc2cc(Cl)ccc21`, for which the Inhibition % turned out to be 5.28%.

As to `CC(C)(C)c1ccc(S(=O)(=O)N[C@@H]2COC(=O)C2)cc1`, the Inhibition % is 8.26%.

In the case of `C=CC(=O)NCCc1ccccn1`, the Inhibition % is 9.91%.

For the compound `O=c1[nH]c(-c2ccc(O)cc2)no1`, the Inhibition % came to 11.5%.

On to `O=C(NCCc1ccc(F)cc1)n1ccnc1`, for which the Inhibition % was 12.7%.

Regarding `CC(C)C1NC(=O)C12CCCCC2` (stereo not shown), the Inhibition % is reported as 0.71%.

As to `O=C1N[C@H]2CCN(C(=O)C=Cc3cccnc3)C[C@@H]2CO1`, the Inhibition % worked out at 6.39%.

In the case of `C=CC(=O)N1CC(Cc2ccsc2)C1`, the Inhibition % was determined as 8.28%.

As for `O=C(CCl)Nc1ccccc1C(=O)Nc1ccccc1`, the Inhibition % came out at 10.5%.

With `CC(C)(C)C(=O)Nc1ccc(B2OC(C)(C)C(C)(C)O2)cn1`, the Inhibition % worked out at 12%.

Turning to `O=C(CCl)Nc1ccc(OCc2ccccc2)cc1`, the Inhibition % came out at 28.9%.

On to `O=S(=O)(F)c1ccc(-c2cn(Cc3cc(C4CC4)no3)nn2)cc1`, for which the Inhibition % came to 3.46%.

`C=CC(=O)NC[C@@H]1CCN(C)[C@H]1c1cccnc1`: the Inhibition % is listed as 34%.

With `CCN1CCN(c2oc(-c3ccccc3)nc2C#N)CC1`, the Inhibition % is listed as 7.4%.

Consider `CC(C)NC(=O)CN(C#N)c1ccccc1`, for which the Inhibition % amounted to 4.98%.

Regarding `CS(=O)(=O)C(C#N)=Cc1ccc(F)c(F)c1`, the Inhibition % is 3.22%.

`C=CC(=O)Nc1ccc(OC)c(F)c1`: the Inhibition % is on record as 4.48%.

Take `COc1ccc(O)c(C=C(C#N)C(N)=O)c1`: the Inhibition % is on record as 17.7%.

As for `CC(Cl)c1nncn1C.Cl` (stereo not shown), the Inhibition % came to 10.3%.

As to `CC1CCC(NC(=O)CCl)CC1` (stereo not shown), the Inhibition % turned out to be 20.5%.

As for `O=C(CCl)NC(=O)NC1CCCCC1`, the Inhibition % was determined as 12.1%.

As to `Cc1ncc(C=CC(=O)N2CCCC(C(C)N)C2)s1` (stereo not shown), the Inhibition % turned out to be 10.1%.

For the compound `CC1(C)OB(c2ccc3nccnc3c2)OC1(C)C`, the Inhibition % is given as 15.3%.

Consider `CCN(CC)C(=O)c1ccc(NC(=O)CCl)cc1`, for which the Inhibition % came out at 43.2%.

Regarding `CN1C(=O)C(C#N)=C(N)C12CCCC2`, the Inhibition % stood at 9%.

In the case of `C=CC(=O)NCC1=CCOCC1`, the Inhibition % came to 6.41%.

As for `C=CC(=O)N1CCC(NC(=O)CC2CCCCC2)CC1`, the Inhibition % is listed as 6.78%.

In the case of `C=CC(=O)NC1CCN(c2ccc(C(F)(F)F)cc2)C1=O` (stereo not shown), the Inhibition % was determined as 4.89%.

Take `CSc1cc(C(=O)CCl)ccc1NC(C)=O`: the Inhibition % is listed as 5.59%.

In the case of `C=CC(=O)NCc1ccnc(C)n1`, the Inhibition % worked out at 7.47%.

For the compound `Cc1ccc(C=CC(=O)N2CCCS2(=O)=O)o1`, the Inhibition % turned out to be 21.3%.

Consider `Cc1noc(C)c1S(=O)(=O)Oc1ccc(F)c(F)c1`, for which the Inhibition % is 2.05%.

Turning to `Cc1nc(S)c2ccccc2n1`, the Inhibition % came to 3.7%.

On to `C=CC(=O)NC1CCCCCC1`, for which the Inhibition % turned out to be 10.8%.

As to `N#Cc1ccc(N2C[C@@H](C(F)(F)F)[C@H](C(N)=O)C2)cn1`, the Inhibition % stood at 4.76%.

As for `O=C(CCl)Nc1ncc(Cl)cc1Cl`, the Inhibition % came to 19.3%.

As to `C=CC(=O)NCC1(c2ccc(F)cc2Cl)CC1`, the Inhibition % was 5.77%.

Consider `C=CC(=O)N1CCc2nocc2C1`, for which the Inhibition % came out at 4.78%.

Consider `Cn1cc(C=C(C#N)C(=O)NCC2CCCO2)cn1` (stereo not shown), for which the Inhibition % stood at 11.8%.

In the case of `C=CC(=O)NCC1CCCCC1`, the Inhibition % amounted to 1.16%.

On to `C=CC(=O)NC(C)(C)C(=O)N1CCCC1`, for which the Inhibition % was 10.4%.

For the compound `Cc1nc(C=CC(=O)n2ccccc2=NC(C)C)cs1`, the Inhibition % was determined as 8.09%.

On to `CC1SC(=C(C#N)C(N)=O)N(c2ccc(F)cc2)C1=O` (stereo not shown), for which the Inhibition % was 13.1%.

For the compound `C=CC(=O)NCc1cc(Cl)c2c(c1)OCCO2`, the Inhibition % is 5.45%.

For `O=C(CCl)Nc1ccc(F)cc1`, the Inhibition % is listed as 25.3%.

In the case of `C=CC(=O)N1CCC(CC(=O)N2CCN(CC)CC2)CC1`, the Inhibition % is reported as 14.2%.

For `CC1(C(=O)O)CCN(C(=O)C=Cc2ccc(Cl)s2)C1` (stereo not shown), the Inhibition % was found to be 13.3%.

As to `N#CN(CC(=O)NCC1CCCO1)c1ccccc1` (stereo not shown), the Inhibition % is on record as 8.52%.

Regarding `CCc1cccc(N(C#N)CC(=O)N2CCOCC2)c1`, the Inhibition % worked out at 5.08%.

In the case of `C=CC(=O)NCC1=CCCC1`, the Inhibition % is on record as 6.59%.

As to `Cc1ccc(NC(=O)CCl)cc1F`, the Inhibition % amounted to 48.3%.

Consider `Cc1ccc(C=C(C#N)c2nnc3n2CCCCC3)o1`, for which the Inhibition % is listed as 6.39%.

Regarding `CC(C)c1nc(CCNc2ccc(C#N)nc2)cs1`, the Inhibition % stood at 9.88%.

As to `C=CC(=O)Nc1nc2nc(C)cc(C)n2n1`, the Inhibition % was determined as 12.8%.

Consider `CC1CN(C(=O)C=Cc2c(Cl)nc3sccn23)CCO1` (stereo not shown), for which the Inhibition % was determined as 4.17%.

For the compound `C=CC(=O)N[C@H]1CCO[C@@H]1c1ccnn1C`, the Inhibition % amounted to 3.57%.

As for `CC1(C)C2CC=C(COCC3CO3)C1C2` (stereo not shown), the Inhibition % was 3.87%.

With `Cc1ccnc2ccc(B3OC(C)(C)C(C)(C)O3)cc12`, the Inhibition % was determined as 0.686%.

Take `CC(CNC(=O)C(C#N)=Cc1ccco1)c1ccsc1` (stereo not shown): the Inhibition % is 14.1%.

Take `COc1ccc(C2=NN(C(=O)CCl)C(c3ccco3)C2)cc1` (stereo not shown): the Inhibition % is recorded as 5.54%.

For the compound `CC(C)CC(=O)Nc1ccc(C(=O)CCl)cc1`, the Inhibition % is 3.15%.

For `COc1ccc2c(c1)CCN2C(=O)C=Cc1cscn1`, the Inhibition % is 9.63%.

With `C=CC(=O)N1CCCC(n2ccc(C(=O)NC)n2)C1` (stereo not shown), the Inhibition % came to 8.31%.

Turning to `N#Cc1nccnc1Oc1ccc(F)cc1`, the Inhibition % is recorded as 3.72%.

For the compound `O=C(CCl)NC1CS(=O)(=O)CC1Cl` (stereo not shown), the Inhibition % turned out to be 12%.

As for `C=CC(=O)NC(C)C1CCC(F)(F)CC1` (stereo not shown), the Inhibition % came out at 5.89%.

As for `OB(O)c1cc2ccccc2o1`, the Inhibition % is on record as -1.81%.

As to `O=C1OCCC1Sc1ncnc2sccc12` (stereo not shown), the Inhibition % was determined as 6.21%.

As to `N#Cc1ncn(CCCOc2ccccc2)n1`, the Inhibition % is on record as 7.03%.

For the compound `C=CC(=O)N1CCCC1c1ccc2c(c1)OCCO2` (stereo not shown), the Inhibition % is reported as 12.7%.

Consider `C=CC(=O)N1CC(C)OC2(CCCOC2)C1` (stereo not shown), for which the Inhibition % is on record as 14.5%.

With `N#Cc1cccc(-n2cncn2)n1`, the Inhibition % was determined as 7.5%.

On to `c1ccc2c([C@@H]3CO3)cccc2c1`, for which the Inhibition % was determined as 6.12%.

With `O=C(Nc1cccc(S(=O)(=O)F)c1)C1(CF)CCC1`, the Inhibition % is reported as 95.8%.

Regarding `N#Cc1ncn(Cc2ccc(F)cc2)n1`, the Inhibition % is on record as 2.87%.

On to `C=CC(=O)NCC1CN(c2ccc(Cl)cc2)CCO1` (stereo not shown), for which the Inhibition % is listed as 8.73%.

For `C=CC(=O)NCCN1CCOC(C)(C)C1`, the Inhibition % amounted to 14.1%.

As for `N#Cc1nccnc1N1CCSSCC1`, the Inhibition % came to 13.3%.
